PubChem BioAssay AID2147 (National Center for Advancing Translational Sciences (NCATS), 2009)
Values joined by “and” are separate entries in the source; they are usually repeats but may differ in a detail not shown here. Equal entries are not always repeated. Hit rate of the full screen: of about 230,000 compounds, about 3,600 (1.6%) were called active. This list was built around the results that the source calls inconclusive (neither active nor inactive); the mix of calls is not that of the screen. The call rests on the fitted dose curve; in most records, active means well fitted inhibition curve with a large enough effect (not every such curve was filed as active); inconclusive means small, poorly fitted or top-dose-only effect, or another doubt; inactive means no such curve, though single readings can be large or run the other way. Potencies of inconclusive entries are doubtful fits and often do not repeat.

Molecular target: Lysine-specific demethylase 4E (Homo sapiens) (UniProt B2RXH2)
Test: qHTS Assay for Inhibitors of Human Jumonji Domain Containing 2E (JMJD2E)
Conditions: JMJD2E catalytic domain, FDH-coupled NADH fluorescence (FDH is formaldehyde dehydrogenase); series mostly up to 57.1 µM
Further: nearly all actives have a fitted effect of over 50% in size.
Potency means the concentration at half of the fitted maximal effect; tags describe the fitted curve by direction and shape.

Sequence of UniProt B2RXH2 (B2RXH2 whole entry, looked up, the tested form may be a part): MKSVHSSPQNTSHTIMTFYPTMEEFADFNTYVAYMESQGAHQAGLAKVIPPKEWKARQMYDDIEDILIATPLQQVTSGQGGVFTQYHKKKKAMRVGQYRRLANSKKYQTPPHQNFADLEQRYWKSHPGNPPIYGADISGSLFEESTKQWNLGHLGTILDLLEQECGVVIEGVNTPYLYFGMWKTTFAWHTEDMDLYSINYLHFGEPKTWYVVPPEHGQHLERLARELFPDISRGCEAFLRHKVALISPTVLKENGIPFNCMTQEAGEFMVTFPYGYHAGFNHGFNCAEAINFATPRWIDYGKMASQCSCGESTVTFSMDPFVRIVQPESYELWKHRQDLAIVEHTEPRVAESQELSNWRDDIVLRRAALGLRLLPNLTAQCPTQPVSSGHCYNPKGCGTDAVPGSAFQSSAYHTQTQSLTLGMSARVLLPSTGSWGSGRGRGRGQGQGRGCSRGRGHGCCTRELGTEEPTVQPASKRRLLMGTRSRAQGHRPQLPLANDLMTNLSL

| SMILES | Potency |
| --- | --- |
| O=C1C=Cc2ccccc2/C1=C/c1[nH]c(=O)[nH]c1O | inconclusive: 31.6 µM [inhibitor, partial curve] |
| CC(C)Cc1nc(Nc2ccc(S(=O)(=O)N3CCCC3)cc2)c2nnn(Cc3ccccc3)c2n1 | inconclusive: 31.6 µM [inhibitor, partial curve] |
| CCOc1ncccc1C(=O)N1CCN(c2ccc(C(F)(F)F)cn2)CC1 | inconclusive: 39.8 µM [inhibitor, single point] |
| CCOC(=O)c1c(C)c(C(=O)NC(C)COC)c(C)n1CC (stereo unspecified) | inactive |
| CCCCNc1nc2ccccc2nc1NS(=O)(=O)c1cccs1 | inconclusive: 31.6 µM [inhibitor, partial curve] |
| CCCCN1C(=O)N(C)C2C1N(C)C(=O)N2CCCC (stereo unspecified) | inactive |
| O=C1c2ccc(-c3ccc4c(c3)C(=O)N(CCO)C4=O)cc2C(=O)N1CCO | inconclusive: 31.6 µM [inhibitor, partial curve] |
| O=C1OCC(CO)(CO)N=C1NNc1cc(Cl)ccc1Cl | inactive |
| Cc1ccc(C)c2nc(N3CCCC3)c(C#N)cc12 | inconclusive: 35.5 µM [inhibitor, partial curve] |
| CCOC(=O)c1cc(-c2ccccc2)n(CC(=O)Nc2ccc(OC)c(OC)c2)c1C | inactive |
| CCn1cc(C(=O)N2CCN(c3ccc(C(C)=O)cc3)CC2)c2cc(OC)c(OC)cc2c1=O | inconclusive: 25.1 µM [inhibitor, single point] |
| O=C(Nc1nnc(-c2ccco2)o1)c1cccc(N2C(=O)CCC2=O)c1 | inactive |
| O=C(COc1ccc(Cl)cc1Cl)NNC(=S)NC(=O)c1ccco1 | inconclusive: 39.8 µM [inhibitor, single point] |
| COc1ccc(CNC(=O)Cn2ncn3c(cc4ccccc43)c2=O)cc1 | inconclusive: 28.2 µM [inhibitor, partial curve] |
| Cc1cccc(Cc2c(C)nc3nc(SCC(=O)O)nn3c2C)c1 | inconclusive: 35.5 µM [inhibitor, single point] |
| COc1cc(/C=N/NC(=O)c2cc(C)n(-c3ccc(F)cc3)c2C)cc(OC)c1O | inconclusive: 39.8 µM [inhibitor, single point] |
| CC(=O)N[C@@H](CC(=O)O)C(=O)N[C@@H](CCC(=O)O)C(=O)O | inactive |
| O=c1oc2cc(OCc3ccc(F)cc3F)ccc2cc1-c1ccccn1 | inconclusive: 3.55 µM [inhibitor, full curve] |
| Cc1cc(-c2nc3cccnc3s2)ccc1NS(=O)(=O)c1ccc2c(c1)OCCO2 | inconclusive: 17.8 µM [inhibitor, partial curve] |
| COC(=O)c1ccccc1NC1OC(=O)c2ccccc21 (stereo unspecified) | inconclusive: 31.6 µM [inhibitor, partial curve] |
| COc1cc(C(=O)N2CCN(c3ccccc3)CC2)c([N+](=O)[O-])cc1OC | inconclusive: 0.0032 µM [inhibitor, full curve, poor fit] |
| CC(Nc1nc(N2CCN(S(C)(=O)=O)CC2)nc2ccccc12)c1ccccc1 (stereo unspecified) | inconclusive: 31.6 µM [inhibitor, partial curve] |
| C[C@H](O)CON1C(=O)c2ccccc2C1=O | inactive |
| c1ccc2c(N3CCOCC3)nc(N3CCOCC3)nc2c1 | inconclusive: 28.2 µM [inhibitor, partial curve] |

| SMILES | Potency |
| --- | --- |
| O=C1CN(c2nc(-c3cccnc3)nc3sc4c(c23)CCCC4)CCN1 | inconclusive: 31.6 µM [inhibitor, partial curve] |
| CCN(CC(=O)NCc1cccs1)S(=O)(=O)c1cccc(C(C)=O)c1 | inactive |
| Cn1cc(Cl)c(-c2nc3ccccc3[nH]2)n1 | inconclusive: 39.8 µM [inhibitor, single point] |
| CS/C(=N\S(=O)(=O)c1cccs1)Nc1ccc(N2CCOCC2)cc1 | inconclusive: 39.8 µM [inhibitor, single point] |
| CCC(C)n1c(C)nc2c(c1=O)c1nc3ccccc3nc1n2CCC1=CCCCC1 (stereo unspecified) | inconclusive: 25.1 µM [inhibitor, partial curve] |
| COc1ccc(C(O)c2nc3ccccc3s2)cc1 (stereo unspecified) | inactive |
| O=C(Sc1cccc2cccnc12)c1ccc(F)cc1 | inconclusive: 14.1 µM [inhibitor, partial curve] |
| COC(=O)c1c(C)oc2ccc(N(C(=O)c3ccncc3)S(=O)(=O)c3ccc(C)cc3C)cc12 | inconclusive: 31.6 µM [inhibitor, single point] |
| O=c1c2ccccc2[nH]c2ccc(F)cc12 | inconclusive: 3.55 µM [inhibitor, partial curve] |
| N#C/C(=C\c1ccncc1)c1nc2ccccc2o1 | inconclusive: 28.2 µM [inhibitor, partial curve] |
| O=[N+]([O-])c1ccccc1-c1ccc(/C=N/n2cnnc2)o1 | inactive |
| CN1CCN(C(=S)NC(=O)c2ccc(S(=O)(=O)N3CCOCC3)cc2)CC1 | inactive |
| CCOC(=O)C(C)Sc1ccc2nnc(-c3ccc(F)cc3)n2n1 (stereo unspecified) | inconclusive: 22.4 µM [inhibitor, partial curve] |
| O=C1NCCCC1C(=O)N/N=C/c1ccccc1O (stereo unspecified) | inconclusive: 28.2 µM [inhibitor, partial curve] |
| CCn1cc(/C=C/C(=O)Nc2ccn(Cc3c(F)c(F)cc(F)c3F)n2)cn1 | inactive |
| COc1ccc(-c2cc(C(F)F)n3ncc(C(=O)N4CCN(C(=O)c5ccco5)CC4)c3n2)cc1 | inconclusive: 25.1 µM [inhibitor, partial curve] |
| O=C(N/N=C/c1ccc(OC(=O)c2ccccc2)c([N+](=O)[O-])c1)c1ccc(O)cc1 | inactive |
| COC(=O)CCC(=O)OC1(C)C(=O)C2=CN(C(CO)CO)C(c3ccc(OC)cc3)=CC2=C(Br)C1=O (stereo unspecified) | active: 5.01 µM |
| Cc1ccc(NNc2c(C)nc3ccccc3nc2=O)cc1 | inconclusive: 28.2 µM [inhibitor, partial curve] |
| CC1=CC(C)(C)N(C(=O)CSc2nnc(N)s2)c2c(C)cc(C)cc21 | inactive |
| O=C(Nc1c(F)cccc1F)c1cnc(N2CCN(c3ccccn3)CC2)c2ccccc12 | inconclusive: 35.5 µM [inhibitor, single point] |
| COc1ccccc1-c1nc(NCc2ccccc2)c2ccccc2n1 | inactive |
| Cc1ccc(C2C(C(=O)O)c3ccccc3C(=O)N2C)c(C)c1 (stereo unspecified) | inactive |
| COc1ccccc1NC(=O)Cn1nc(-c2ccc3c(c2)OCCO3)ccc1=O | inconclusive: 35.5 µM [inhibitor, single point] |

| SMILES | Potency |
| --- | --- |
| CCOCCCNC(=O)/C(C#N)=C/c1cc(OC)c(O)c([N+](=O)[O-])c1 | inconclusive: 0.562 µM [inhibitor, partial curve, poor fit] |
| COc1ccc(-c2nc(CNS(=O)(=O)c3ccc(OC)c(OC)c3)cs2)cc1 | inconclusive: 35.5 µM [inhibitor, single point] |
| Nc1ccc2nn(-c3ccccc3)nc2c1 | inconclusive: 25.1 µM [inhibitor, partial curve] |
| CCOC(=O)N1CCc2c(sc(NC(=O)c3ccc(S(=O)(=O)N4CCCC4)cc3)c2C#N)C1 | inactive |
| CC1(C)CC(Cc2nc(=S)[nH][nH]2)C(=O)O1 (stereo unspecified) | inactive |
| Cn1c(NC(=O)Cc2cccc3ccccc23)cc(=O)n(C)c1=O | inactive |
| S=c1nc[nH]c2c1sc1nc(-c3ccccc3)c3c(c12)CCCC3 | inactive |
| O=C(NC1CCCCCC1)c1ccccc1-c1ccccc1 | inactive |
| CCC1=NNc2cccc3c(OC)ccc1c23 | active: 5.01 µM |
| N#Cc1cc2ccc(N3CCOCC3)cc2cc1C#N | inconclusive: 8.91 µM [inhibitor, partial curve] |
| CON(c1nc(N(C)C)nc(N(C)C)n1)S(=O)(=O)c1ccccc1Cl | inconclusive: 39.8 µM [inhibitor, single point] |
| CCN(CC)CCCC(C)Nc1c2ccc(Cl)cc2nc2ccc(OC)cc12 (stereo unspecified) | inconclusive: 11.2 µM [inhibitor, partial curve] and inconclusive: 25.1 µM [inhibitor, partial curve] and inconclusive: 35.5 µM [inhibitor, partial curve] |
| CCOC(=O)CNC(c1ccccc1)c1cc(Br)ccc1NC(=O)CCN1CCOCC1 (stereo unspecified) | inactive |
| COc1cccc(C(=O)COc2ccc3ccc(=O)oc3c2)c1 | inconclusive: 39.8 µM [inhibitor, single point] |
| S=c1c2c(nc3nc[nH]n13)CCC2 | inconclusive: 28.2 µM [inhibitor, single point] |
| Oc1ccc(NCc2cccc(OCc3ccccc3)c2)cc1 | active: 4.47 µM |
| Cn1cc([N+](=O)[O-])c(C(=O)Nc2ccc3nc(-c4ccccc4)[nH]c3c2)n1 | inconclusive: 28.2 µM [inhibitor, partial curve] |
| COc1ccc(N2C(=O)CC(Nc3ccc(C(=O)O)cc3)C2=O)cc1OC (stereo unspecified) | inactive |
| CC(C)N(CCn1cnc2c([nH]c3ccccc32)c1=O)C(C)C | inconclusive: 17.8 µM [inhibitor, partial curve] |
| OC1CN=C2C=CC=CN2C1 (stereo unspecified) | inconclusive: 25.1 µM [inhibitor, partial curve] |
| C=CCn1c(SCC(=O)Nc2c(C)n(C)n(-c3ccccc3)c2=O)nc2scc(-c3ccccc3)c2c1=O | inactive |
| Cc1ccc(-n2c([O-])nc(-[n+]3ccccc3)c2C=O)cc1 | inconclusive: 39.8 µM [inhibitor, single point] |
| CCCCOc1[nH]c2nc(-c3ccco3)n(Cc3ccco3)c(=N)c2c1C#N | inconclusive: 28.2 µM [inhibitor, single point] |
